Molecular target: the molecule itself
Test: SEC-MALS

B1: G3BP1 NTF2L domain ([…]), V11A (domain or fragment)
chain: not shown
For B1, the “stoichiometry N” value was 2.

Reference: article PMC11617104 (Molecular Biology of the Cell, 2024)
